Source: EPA's CvTdb concentration-time database
This continues a long series; more values of the same kind are listed elsewhere.

Columns and labels:
Test in all cases: concentration in plasma after dosing
[1] = test system: Rat
[2] = test system: Rat; conditions: 5 min; dosed: Dibromoacetic acid; 50 mg/kg; oral; Male; F344
[3] = test system: Rat; conditions: dosed: Dibromoacetic acid, 50 mg/kg, oral, Female, Harlan Sprague Dawley
[4] = test system: Rat; conditions: dosed: Dibromoacetic acid, 50 mg/kg, oral, Female, Harlan Sprague Dawley; remark: listed apart in the source
[5] = test system: Rat; conditions: dosed: Dibromoacetic acid, 25 mg/kg, iv, Female, F344
[6] = test system: Rat; conditions: dosed: Dibromoacetic acid, 25 mg/kg, iv, Male, F344
[7] = test system: Rat; conditions: dosed: Dibromoacetic acid, 25 mg/kg, iv, Male, F344; remark: listed apart in the source
[8] = test system: Rat; conditions: dosed: Dibromoacetic acid, 125 mg/kg, oral, Male, F344
[9] = test system: Rat; conditions: dosed: Dibromoacetic acid, 125 mg/kg, oral, Female, Harlan Sprague Dawley
[10] = test system: Rat; conditions: 3 h; dosed: Dibromoacetic acid; 50 mg/kg; oral; Female; F344
[11] = test system: Rat; conditions: dosed: Dibromoacetic acid, 25 mg/kg, iv, Male, F344; remark: listed apart in the source
[12] = test system: Rat; conditions: dosed: Dibromoacetic acid, 50 mg/kg, oral, Female, Harlan Sprague Dawley; remark: listed apart in the source
[13] = test system: Rat; conditions: 3 h; dosed: Dibromoacetic acid; 50 mg/kg; oral; Female; F344; remark: listed apart in the source
[14] = test system: Rat; conditions: 5 min; dosed: Dibromoacetic acid; 125 mg/kg; oral; Male; F344
[15] = test system: Rat; conditions: dosed: Dibromoacetic acid, 25 mg/kg, iv, Female, F344; remark: listed apart in the source
[16] = test system: Rat; conditions: 5 min; dosed: Dibromoacetic acid; 125 mg/kg; oral; Male; F344; remark: listed apart in the source
[17] = test system: Rat; conditions: dosed: Dibromoacetic acid, 125 mg/kg, oral, Male, F344; remark: listed apart in the source
[18] = test system: Rat; conditions: dosed: Dibromoacetic acid, 50 mg/kg, oral, Male, Harlan Sprague Dawley
[19] = test system: Rat; conditions: dosed: Potassium Perfluorobutane Sulfonate, 100 mg/kg, oral, Male, Harlan Sprague Dawley
[20] = test system: Rat; conditions: dosed: Potassium Perfluorobutane Sulfonate, 20 mg/kg, oral, Female, Harlan Sprague Dawley
[21] = test system: Rat; conditions: 3 h; dosed: Potassium Perfluorobutane Sulfonate; 20 mg/kg; oral; Male; Harlan Sprague Dawley
[22] = test system: Rat; conditions: 12 h; dosed: Potassium Perfluorobutane Sulfonate; 20 mg/kg; oral; Female; Harlan Sprague Dawley
[23] = test system: Rat; conditions: 3 h; dosed: Potassium Perfluorobutane Sulfonate; 20 mg/kg; oral; Female; Harlan Sprague Dawley
[24] = test system: Rat; conditions: dosed: Potassium Perfluorobutane Sulfonate, 20 mg/kg, oral, Female, Harlan Sprague Dawley; remark: listed apart in the source
[25] = test system: Rat; conditions: 12 h; dosed: Potassium Perfluorobutane Sulfonate; 20 mg/kg; oral; Male; Harlan Sprague Dawley

O=C(O)C(Br)Br [Dibromoacetic acid]
concentration in plasma [ng/mL], [1], dosed: Dibromoacetic acid
Conditions | Female | Male
0.2 h, 25 mg/kg, iv, F344 | 26400 | 30700
0.5 h, 25 mg/kg, iv, F344 | 10700 | 14100
0.5 h, 50 mg/kg, oral, Harlan Sprague Dawley | 20900 | 34400
0.5 h, 125 mg/kg, oral, F344 | – | 54700
0.5 h, 125 mg/kg, oral, Harlan Sprague Dawley | 71000 | –
0.75 h, 25 mg/kg, iv, F344 | 5380 | 4700
0.75 h, 50 mg/kg, oral, Harlan Sprague Dawley | 23500 | 23200
0.75 h, 125 mg/kg, oral, F344 | 76400 | 36700
0.75 h, 125 mg/kg, oral, Harlan Sprague Dawley | 118000 | –
1 h, 25 mg/kg, iv, F344 | 1920 | 2010
1 h, 50 mg/kg, oral, Harlan Sprague Dawley | 23600 | 31200
1 h, 125 mg/kg, oral, F344 | – | 75300
1 h, 125 mg/kg, oral, Harlan Sprague Dawley | 98000 | –
1.5 h, 50 mg/kg, oral, Harlan Sprague Dawley | 8890 | 10000
2 h, 50 mg/kg, oral, Harlan Sprague Dawley | 6560 | 8800
2 h, 125 mg/kg, oral, F344 | – | 32100
2 h, 125 mg/kg, oral, Harlan Sprague Dawley | 28800 | –
2 min, 25 mg/kg, iv, F344 | 63500 | 54300
3 h, 50 mg/kg, oral, F344 | 1660 | –
3 h, 50 mg/kg, oral, Harlan Sprague Dawley | 2860 | –
3 h, 125 mg/kg, oral, F344 | – | 14000
3 h, 125 mg/kg, oral, Harlan Sprague Dawley | 10700 | –
4 h, 50 mg/kg, oral, Harlan Sprague Dawley | 1690 | 1990
4 h, 125 mg/kg, oral, F344 | 9720 | 11000
4 h, 125 mg/kg, oral, Harlan Sprague Dawley | 1990 | –
5 min, 25 mg/kg, iv, F344 | 50000 | 46700
5 min, 50 mg/kg, oral, F344 | – | 9140
5 min, 125 mg/kg, oral, F344 | – | 45800
6 h, 50 mg/kg, oral, Harlan Sprague Dawley | 1260 | 123
6 h, 125 mg/kg, oral, F344 | – | 3840
6 h, 125 mg/kg, oral, Harlan Sprague Dawley | 3610 | –
7 min, 25 mg/kg, iv, F344 | 41900 | 44800
8 h, 125 mg/kg, oral, F344 | – | 299
10 min, 50 mg/kg, oral, F344 | 21200 | –
10 min, 50 mg/kg, oral, Harlan Sprague Dawley | 8500 | 17600
10 min, 125 mg/kg, oral, F344 | 57600 | 22900
20 min, 25 mg/kg, iv, F344 | 17800 | 18800
20 min, 50 mg/kg, oral, Harlan Sprague Dawley | 28500 | 43900
20 min, 125 mg/kg, oral, F344 | – | 67400
20 min, 125 mg/kg, oral, Harlan Sprague Dawley | 80100 | –
40 min, 25 mg/kg, iv, F344 | 5190 | 5190
50 min, 25 mg/kg, iv, F344 | 3680 | 4860
55 min, 25 mg/kg, iv, F344 | 2750 | 3750

Conditions | concentration in plasma [ng/mL]
[2] | 8280
[10] | 1820
[13] | 766
[14] | 59200
[16] | 50200

Conditions | concentration in plasma [ng/mL]
[3], 0.5 h | 33100
[3], 6 h | 312
[4], 1 h | 25800
[4], 2 h | 6090
[5], 2 min | 61300
[5], 40 min | 4900
[6], 7 min | 49200
[6], 50 min | 5170
[7], 0.75 h | 6340
[7], 5 min | 48600
[8], 0.75 h | 74000
[8], 4 h | 5710
[9], 0.5 h | 88600
[9], 6 h | 819
[11], 1 h | 2340
[11], 20 min | 21400
[12], 1.5 h | 8900
[12], 20 min | 12400
[15], 7 min | 41600
[15], 50 min | 4500
[17], 0.75 h | 46800
[17], 4 h | 7850
[18], 1 h | 22500
[18], 2 h | 4040

O=S(=O)([O-])C(F)(F)C(F)(F)C(F)(F)C(F)(F)F.[K+] [Potassium Perfluorobutane Sulfonate]
concentration in plasma [ng/mL], [1], dosed: Potassium Perfluorobutane Sulfonate, oral
Conditions | 4 mg/kg | 20 mg/kg | 100 mg/kg
0.25 h, Female, Harlan Sprague Dawley | 5690 | 22300 | 78600
0.25 h, Male, Harlan Sprague Dawley | – | – | 87800
0.5 h, Female, Harlan Sprague Dawley | 8210 | 29100 | 131000
0.5 h, Male, Harlan Sprague Dawley | – | 36400 | 174000
0.5 h, Male, Harlan Sprague Dawley - this seems too small | – | 53300 | –
0.75 h, Female, Harlan Sprague Dawley | 9550 | 43900 | 139000
0.75 h, Male, Harlan Sprague Dawley | – | 47800 | 274000
1 h, Female, Harlan Sprague Dawley | 6670 | 33300 | 129000
1 h, Male, Harlan Sprague Dawley | – | 57500 | 196000
1.5 h, Female, Harlan Sprague Dawley | 6760 | 26800 | 93400
1.5 h, Male, Harlan Sprague Dawley | – | – | 168000
3 h, Female, Harlan Sprague Dawley | 2960 | 11300 | 62600
3 h, Male, Harlan Sprague Dawley | – | 61300 | 117000
5 min, Female, Harlan Sprague Dawley | 1600 | 810 | 17100
5 min, Male, Harlan Sprague Dawley | – | 2480 | 31500
6 h, Female, Harlan Sprague Dawley | 838 | 1360 | 50500
6 h, Male, Harlan Sprague Dawley | – | 39200 | 96000
9 h, Female, Harlan Sprague Dawley | 280 | 384 | 2190
9 h, Male, Harlan Sprague Dawley | – | 16400 | 23300
12 h, Female, Harlan Sprague Dawley | 84.2 | 51.1 | 249
12 h, Male, Harlan Sprague Dawley | – | 7820 | 20500
24 h, Female, Harlan Sprague Dawley | 61 | – | –
24 h, Male, Harlan Sprague Dawley | – | – | 1020
48 h, Male, Harlan Sprague Dawley | – | – | 44.8

Conditions | concentration in plasma [ng/mL]
[19], 0.25 h | 114000
[19], 6 h | 91800
[20], 0.25 h | 29400
[20], 24 h | 114
[24], 5 min | 2800
[24], 9 h | 1570

Conditions | concentration in plasma [ng/mL]
[21] | 56600
[22] | 410
[23] | 18200
[25] | 12800
